The supplement of paper PMC6089552
In all, about 3,200 compounds went through this assay and about 300 (9.4%) showed activity. The list shows a part of the results, in another mix than the full data.

System: A673/TR/shEF
Assay: cell viability (LOESS-normalised, relative to median of negative controls) (log2 ratio); higher = more viable cells (less compound effect), active = hit call of the paper (over 3 MAD below the median)
Settings: treatment time: 72 h
Procedure, shortened: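 Doxycycline, present or absent from 24 h before compounds, was used to induce EWS-FLI1 shRNA knockdown in A673/TR/shEF Ewing sarcoma cells at 1,500 per well in 384-well plates. Cells then received library compounds at two or more concentrations, or DMSO controls, for three days. Viability was measured by CellTiter-Glo luminescence on an Envision reader, and per-plate LOESS correction, division by the negative-control median and log2 transformation followed.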

[1] = 0.25 µM, library screen: screen1, EWS-FLI1 expression: high (no doxycycline)
[2] = 0.25 µM, library screen: screen1, EWS-FLI1 expression: low (doxycycline-induced shRNA knockdown)
[3] = 2.5 µM, library screen: screen1, EWS-FLI1 expression: high (no doxycycline)
[4] = 2.5 µM, library screen: screen1, EWS-FLI1 expression: low (doxycycline-induced shRNA knockdown)
[5] = 0.25 µM, library screen: screen2, EWS-FLI1 expression: high (no doxycycline)
[6] = 0.25 µM, library screen: screen2, EWS-FLI1 expression: low (doxycycline-induced shRNA knockdown)
[7] = 2.5 µM, library screen: screen2, EWS-FLI1 expression: high (no doxycycline)
[8] = 2.5 µM, library screen: screen2, EWS-FLI1 expression: low (doxycycline-induced shRNA knockdown)

Measured: cell viability (log2)

CC1(C)C(=O)[C@@H]2C[C@@]3(O)C4=CC(=O)O[C@@H](c5ccoc5)[C@]4(C)CCC3C(C)(C2=O)[C@H]1CC(=O)O (stereo partly drawn)
inactive: [1] 0.0688 | [2] 0.13 | [3] 0.086 | [4] 0.0264

COc1cccc(C(=O)NCCN2CCN(c3ccc(Cl)cc3)CC2)c1
inactive: [5] 0.184 | [6] 0.2 | [7] 0.0849 | [8] 0.0867

CC(=O)Oc1ccc2c(c1)CCC1C2CCC2(C)C(=O)CCC12 (stereo not drawn)
inactive: [1] 0.0434 | [2] -0.0193 | [3] 0.146 | [4] 0.0428

NS(=O)(=O)c1ccc(-c2ccc(/C=C3/SC(=S)N(C4CCCCC4)C3=O)o2)cc1
inactive: [1] 0.109 | [2] 0.0623 | [3] 0.167 | [4] -0.0331

CN1Cc2c(N)cccc2C(c2ccccc2)C1 (stereo not drawn)
inactive: [5] 0.0977 | [6] 0.0671 | [7] 0.0792 | [8] 0.0734

CN(C)C/C=C/C(=O)Nc1cc2c(Nc3ccc(F)c(Cl)c3)ncnc2cc1O[C@H]1CCOC1
active: 25 µM, library screen: screen3, EWS-FLI1 expression: high (no doxycycline) -1.35 | 25 µM, library screen: screen3, EWS-FLI1 expression: low (doxycycline-induced shRNA knockdown) -1

CSCCC(NC=O)C(=O)NC(CC(C)C)C(=O)NC(Cc1ccccc1)C(=O)O (stereo not drawn)
inactive: [1] 0.0125 | [2] 0.0891 | [3] 0.0974 | [4] 0.0808

N#Cc1c2c(c(NCCCO)n3c1nc1ccccc13)CCC2
inactive: [1] 0.146 | [2] 0.012 | [3] 0.0888 | [4] -0.0597

CCCN(CCc1ccccc1)C1CCc2c(O)cccc2C1 (stereo not drawn)
inactive: [5] 0.155 | [6] 0.0701 | [7] 0.202 | [8] 0.0389

CCOc1c(Br)cc(C=C(C#N)c2nn(-c3ccccc3)c(N)c2C#N)cc1OC
inactive: [1] 0.0856 | [2] 0.124 | [3] 0.0719 | [4] 0.193

C=CCSCC1Nc2cc(Cl)c(S(N)(=O)=O)cc2S(=O)(=O)N1 (stereo not drawn)
inactive: [1] 0.0566 | [2] 0.0785 | [3] 0.164 | [4] 0.197

NC(=O)c1cccc(N)c1
inactive: 0.025 µM, library screen: screen2, EWS-FLI1 expression: high (no doxycycline) 0.0854 | 0.025 µM, library screen: screen2, EWS-FLI1 expression: low (doxycycline-induced shRNA knockdown) 0.0286 | [1] 0.13 | [2] 0.119 | [5] 0.0163 | [6] 0.0531 | [3] 0.159 | [4] 0.058 | [7] 0.0872 | [8] 0.0704 | 25 µM, library screen: screen2, EWS-FLI1 expression: high (no doxycycline) 0.0853 | 25 µM, library screen: screen2, EWS-FLI1 expression: low (doxycycline-induced shRNA knockdown) 0.059

C=C1CCC2C(CC2(C)C)C(=C)CCC1=NO (stereo not drawn)
inactive: [1] 0.105 | [2] 0.00367 | [3] 0.133 | [4] 0.0769
